Measured values from the supplement of paper PMC10126150.
Sequences with one replicate were seen in a single cluster, so their values are uncertain.

tested on: ATP; experiment: switch fluorescence ratio, 500 uM ATP over buffer (Cy3 cluster intensity, sum of 5 cycles each) (fold (ratio)); higher = stronger signal-on switching upon ATP binding; sequences stand for … in TCGTCGGCAGCGTCAGATGTGTATAAGAGACAGTTTTTTTTTTTTTTTTTTTTTTTTT…TC; details: aptamer strand: ATP DNA aptamer (quencher-CACCTGGGGGAGTATTGCGGAGGAAGG + anchor), 100 nM annealed; ATP concentration: 500 uM; one replicate
Procedure, shortened: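 Clusters with intensities outside 100-1000 RFU were excluded. The remaining Cy3-labelled switching-strand clusters on a modified Illumina MiSeq flow-cell had been annealed to 100 nM quencher-labelled ATP aptamer and imaged in selection buffer, then after 15 min with 500 uM ATP at 22 °C, for five cycles separated by NaOH stripping and re-annealing. The fluorescence ratio, averaged per switch-domain sequence, is each cluster's summed target-cycle Cy3 intensity over its summed buffer-cycle Cy3 intensity.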
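Further: ATP exposure 15 min at 22 °C before imaging.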

Sequence | switch fluorescence ratio
CGACACCGGT | 1.04
CGACACCTGC | 1.15
CGACACTGTG | 0.974
CGACAGACCG | 1.05
CGACATCCGA | 1.06
CGACCATGT | 0.969
CGACCCCCT | 1.67
CGACCCGAGT | 1.01
CGACCTAGGG | 0.977
CGACCTGCT | 1.02
CGACGAAGTA | 1.29
CGACGCCCGT | 1.29
CGACGGAATG | 1.85
CGACGGCGCC | 1.03
CGACGGGATT | 1.7
CGACGTCTTT | 0.984
CGACTAGGTT | 1
CGACTGAGC | 1.06
CGACTGATGG | 0.981
CGACTGTAGG | 1
CGACTTTGAC | 1.13
CGAGAAACGC | 1
CGAGAACAGT | 0.967
CGAGACGCTG | 1.06
CGAGACTGGG | 1.01
CGAGAGGCGG | 0.99

Sequence | switch fluorescence ratio
CGAGAGGGCT | 0.973
CGAGAGGTCA | 0.978
CGAGATTGAG | 1.02
CGAGCAGGCA | 0.933
CGAGCCGCTA | 1.09
CGAGCGAGAT | 1.02
CGAGCGGATG | 0.988
CGAGCGGGTC | 1.13
CGAGGAGCAC | 1.06
CGAGGCCAAA | 1.22
CGAGGCCTTT | 0.974
CGAGGCTCTC | 0.982
CGAGGGCGGC | 1.01
CGAGGGGTGA | 0.99
CGAGGTAGTA | 1.01
CGAGGTCACA | 1.03
CGAGGTCCCA | 0.981
CGAGGTCGGG | 0.983
CGAGGTTTG | 1.02
CGAGTAAAGC | 0.948
CGAGTCAAAG | 1.02
CGAGTCTTAC | 1.06
CGAGTGCAAG | 1.01
CGAGTTACCA | 1.04
CGAGTTGAGG | 1.01
CGATAACGAG | 1.01

Sequence | switch fluorescence ratio
CGATAATTAC | 1.43
CGATACGTCA | 1.03
CGATACTCCA | 2.45
CGATAGCATG | 1.07
CGATAGCCAT | 1.06
CGATATTGCT | 0.982
CGATCAACGG | 0.984
CGATCCTTCG | 1.03
CGATCGCGGC | 2.6
CGATCGTACA | 1.04
CGATCTCATG | 0.955
CGATGAAACT | 0.979
CGATGATAT | 0.992
CGATGCAGTG | 1.16
CGATGCTCTA | 0.967
CGATGGCAGC | 1.38
CGATTAGAAG | 0.968
CGATTAGCGA | 1.06
CGATTCATTG | 0.975
CGATTGACAC | 1.1
CGATTGATAA | 1.04
CGATTGGCTG | 0.935
CGATTGGCTT | 1.02
CGATTGGGCG | 1.05
CGATTGTAA | 1.03
CGATTGTAAA | 0.991

Sequence | switch fluorescence ratio
CGATTGTACT | 1.08
CGATTTACGA | 1.08
CGATTTCATG | 0.979
CGATTTGAGC | 1
CGCAAACGGT | 3.18
CGCAATCTGA | 3.1
CGCAATGTTG | 1.63
CGCACACTTA | 1.36
CGCACGTGCT | 0.986
CGCACTGGT | 1.05
CGCACTTTGC | 1.06
CGCACTTTGG | 1
CGCAGAACTG | 1.11
CGCAGAAGCT | 1
CGCAGAGGAA | 1.03
CGCAGATATG | 1.04
CGCAGATGTG | 0.992
CGCAGATTAT | 1.04
CGCAGCAGG | 2.96
CGCAGGGTC | 1.41
CGCAGTCTGA | 0.995
CGCAGTGTCG | 1.03
CGCATCGTGT | 0.988
CGCATGTCA | 1.14
CGCATTGCTG | 1.05
CGCATTTAAT | 1.07

Sequence | switch fluorescence ratio
CGCATTTGTC | 1.65
CGCCAACAGC | 1.37
CGCCAAGTAT | 1.09
CGCCAATGGT | 1.25
CGCCAATGTA | 0.995
CGCCACCAAG | 1.17
CGCCACTAGA | 1.02
CGCCATCGGC | 0.983
CGCCATTAA | 1.07
CGCCATTGAG | 1
CGCCCAAATC | 2.13
CGCCCAGTTT | 1.11
CGCCCCGACG | 1.42
CGCCCGCAAC | 2.52
CGCCCGCGT | 3.09
CGCCCTAGAT | 1.05
CGCCCTGTCC | 1.11
CGCCGACCTG | 0.98
CGCCGCCATC | 4.2
CGCCGCTTGT | 1.67
CGCCGGCAGG | 1.04
CGCCTAGCGG | 0.962
CGCCTAGCTG | 0.953
CGCCTAGGAC | 1.11
CGCCTATTTT | 0.988
CGCCTCATC | 1.04

Sequence | switch fluorescence ratio
CGCCTGGATG | 1.05
CGCCTTATTT | 0.98
CGCCTTCTCC | 2.27
CGCCTTGAAC | 1.08
CGCGACCCGA | 1.01
CGCGATCTTT | 1.11
CGCGCAAGGG | 1.76
CGCGCAGGGT | 1.01
CGCGCCAATC | 3.17
CGCGCCCTGA | 1.04
CGCGCGGATG | 0.999
CGCGCGTAGA | 1.01
CGCGCTCCAT | 1.37
CGCGGAAGGA | 0.947
CGCGGACTAA | 1.05
CGCGGAGCTA | 1.11
CGCGGGGATG | 1.01
CGCGGGGTAT | 0.999
CGCGGTAAAG | 1
CGCGGTGCGT | 0.92
CGCGGTTTTT | 0.997
CGCGTACACT | 1.13
CGCGTAGATT | 1.09
CGCGTCACGG | 1.04
CGCGTCAGGG | 1.09
CGCGTCGCGC | 1

Sequence | switch fluorescence ratio
CGCGTCGGAT | 1.03
CGCGTCTTCG | 0.937
CGCGTGTGCT | 1.03
CGCGTGTTAC | 1.07
CGCGTTATCA | 1.05
CGCGTTGCTC | 1.32
CGCGTTGTGT | 0.969
CGCGTTGTTT | 1
CGCGTTTAGG | 1.14
CGCGTTTCT | 1.01
CGCTACGCTC | 1.49
CGCTACTGCA | 1.07
CGCTAGTACG | 1.16
CGCTAGTAGG | 1.01
CGCTAGTCTT | 1.07
CGCTAGTTGG | 1
CGCTATGAAA | 0.937
CGCTCAAATC | 1.22
CGCTCCAGTG | 1.54
CGCTCCTCAG | 1.42
CGCTCTAGGG | 1.03
CGCTCTATAG | 1.12
CGCTGCGCGC | 1.05
CGCTGCTTTA | 1.09
CGCTGGGTAT | 0.972
CGCTGTCGCG | 0.97

Sequence | switch fluorescence ratio
CGCTGTTAAC | 1.37
CGCTTGAGCG | 0.968
CGCTTGCACG | 0.993
CGCTTGCCTG | 1.03
CGCTTGTA | 1.02
CGGAA | 1.1
CGGAAAAACA | 1.06
CGGAAACT | 1.02
CGGAAACTGT | 0.947
CGGAAATTA | 1
CGGAACAGGT | 0.975
CGGAACGGAC | 1.1
CGGAAGGCGT | 0.947
CGGAATTATG | 0.982
CGGAATTCGG | 1.05
CGGACAGTTT | 1.05
CGGACCGGAT | 1
CGGACCGTAG | 1
CGGACTAGAA | 1.02
